Data: patent US9718818B2, “Compounds inhibiting leucine-rich repeat kinase enzyme activity” (MERCK SHARP & DOHME CORP., priority 2013, dated 2017)

The compounds below were run against LRRK2 (G2019S mutation, GST-LRRK2 (amino acids 970-2527)) (Homo sapiens, UniProt Q5S007, G2019S) (assay: LRRK2 Km ATP LanthaScreen Assay). Conditions: IC50 (nM), mean IC50 of several tests, fluorescein LRRKtide substrate, TR-FRET.

IC50 | SMILES
27.7 nM | Cn1cc(-c2ncc3[nH]nc(-c4ccnc(N5CCOCC5)c4)c3n2)cn1 [Example U4]
217 nM | COc1cc2c(-c3ccnc(N4CCN(C)C(=O)C4)c3)n[nH]c2cn1 [Example F2]
15.5 nM | CC(C)Oc1cc2c(-c3ccnc(N4CCOCC4)c3)n[nH]c2cn1 [Example V1]
186 nM | FC(F)COc1cc2c(-c3ccnc(N4CCOCC4)c3)n[nH]c2cn1 [Example G4]
313 nM | CC1(Oc2ccc3[nH]nc(-c4cc(N5CCOCC5)ncn4)c3n2)CC1 [Example O1]
104 nM | C=CCOc1cc2c(-c3ccnc(N4CCOCC4)c3)n[nH]c2cn1 [Example G2]
2.35 nM | COCCNc1cc(-c2n[nH]c3cnc(-c4cnn(C)c4)cc23)ccn1 [Example D1.3]
155 nM | COC1CCN(c2cc(-c3n[nH]c4cnc(C5CC5)cc34)ccn2)CC1 [Example E2]

Continued, compound first:

SMILES | IC50
[2H]C([2H])([2H])C([2H])(Oc1cc2c(-c3ccnc(N4C([2H])([2H])C([2H])([2H])OC([2H])([2H])C4([2H])[2H])c3)n[nH]c2cn1)C([2H])([2H])[2H] [Example G6] | 43.1 nM
COc1ccncc1-c1cc2c(-c3ccnc(N4CC(OC)C4)c3)n[nH]c2cn1 [Example B1.8] | 0.7 nM
Clc1cc2c(-c3ccnc(-n4ccnc4)c3)n[nH]c2cn1 [Example Z1] | 1080 nM

Same assay, conditions: LRRK2 IC50 (nM), mean IC50 of several tests, fluorescein LRRKtide substrate, TR-FRET

IC50 | SMILES
63.4 nM | CC(C)Oc1cc2c(-c3ccnc(N4CCN(C(=O)c5cnco5)CC4)c3)n[nH]c2cn1 [Example L10]
7.15 nM | CC(C)Oc1cc2c(-c3ccnc(N4CCOCC4)c3)n[nH]c2cn1 [Example J1]
11.9 nM | CC(C)Oc1cc2c(-c3ccnc(N4CCOC5(CC5)C4)c3)n[nH]c2cn1 [Example J3]

More lines, now with the values behind:

SMILES | IC50
CC(C)Oc1cc2c(-c3ccnc(N4CCN(C5CC5)CC4)c3)n[nH]c2cn1 [Example J43] | 34 nM
CC(C)Oc1cc2c(-c3ccnc(N4C5CCC4COC5)c3)n[nH]c2cn1 [Example J4] | 85.4 nM
CC(C)Oc1cc2c(-c3cc(N4CC[C@H](F)C4)ncn3)n[nH]c2cn1 [Example N26] | 34 nM
Cc1nc2c(o1)CN(c1cc(-c3n[nH]c4cnc(OC(C)C)cc34)ccn1)CC2 [Example J33] | 46 nM
CC(C)Oc1cc2c(-c3ccnc(N4CC[C@@H](F)C4)c3)n[nH]c2cn1 [Example J41] | 26 nM
COC1CC(CN2CCN(c3cc(-c4n[nH]c5cnc(OC(C)C)cc45)ccn3)CC2)C1 (stereo not drawn) [Example M8] | 30 nM
COC1(C)CN(c2cc(-c3n[nH]c4cnc(OC(C)C)cc34)ccn2)C1 [Example J40] | 42 nM
CC(C)Oc1cc2c(-c3ccnc(N4CCN(S(C)(=O)=O)CC4)c3)n[nH]c2cn1 [Example K3] | 24 nM
CC(C)Oc1cc2c(-c3ccnc(N4CCN(c5ccncn5)CC4)c3)n[nH]c2cn1 [Example J39] | 58 nM
CC(C)Oc1cc2c(-c3ccnc(N4CC(C(C)(C)O)C4)c3)n[nH]c2cn1 [Example J18] | 77 nM
CC(C)Oc1cc2c(-c3cc(N4CCN(c5ccncn5)CC4)ncn3)n[nH]c2cn1 [Example N21] | 69 nM
CCS(=O)(=O)N1CCN(c2cc(-c3n[nH]c4cnc(OC(C)C)cc34)ccn2)CC1 [Example K1] | 45 nM
CC(C)Oc1cc2c(-c3cc(N4CCO[C@H](C)C4)ncn3)n[nH]c2cn1 [Example N12] | 32 nM
CC(C)Oc1cc2c(-c3ccnc(N4CCN(S(=O)(=O)Cc5ccccn5)CC4)c3)n[nH]c2cn1 [Example K8] | 32 nM
Cc1noc(C2CN(c3cc(-c4n[nH]c5cnc(OC(C)C)cc45)ccn3)C2)n1 [Example J36] | 163 nM
CO[C@H]1CN(c2cc(-c3n[nH]c4cnc(OC(C)C)cc34)ccn2)C[C@@H]1O [Example J19] | 80 nM
CC(C)Oc1cc2c(-c3ccnc(N4CCC(O)CC4)c3)n[nH]c2cn1 [Example J5] | 37 nM
CC(C)Oc1cc2c(-c3cc(N4CC(S(C)(=O)=O)C4)ncn3)n[nH]c2cn1 [Example N9] | 65 nM
CC(C)Oc1cc2c(-c3cc(N4CCC[S+]([O-])CC4)ncn3)n[nH]c2cn1 (stereo not drawn) [Example N15] | 1260 nM
